Screen size: about 420,000 compounds; about 64,000 (15%) were called active. The inconclusive results got no clear call from the source; some entries with a clear call stand among them for comparison. The call rests on the fitted dose curve; in most records, active means well fitted inhibition curve with a large enough effect; inconclusive means small, poorly fitted or top-dose-only effect; inactive means flat fitted curve, though single readings scatter. Potencies of inconclusive entries are left out as doubtful fits.
Assay: qHTS for Inhibitors of human tyrosyl-DNA phosphodiesterase 1 (TDP1): qHTS in cells in absence of CPT; further: nearly all actives have a fitted effect of over 55% in size
Conditions: DT40 Tdp1-/- hTDP1 cells, no CPT, ATP luminescence, 48 h; activity change, negative = growth inhibition: at 46.2 µM (top of the series) unless noted
Outline: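 Growth of hTDP1-complemented DT40 Tdp1-knockout cells is measured by ATP luminescence after at least 48 hr compound exposure at 37 °C, with DMSO substituting for the 20 nM CPT used in the parallel screen.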
For `Cc1cccc(-c2nc(SCc3cc(=O)c4cccc(F)c4[nH]3)n[nH]2)c1`, the Potency was inconclusive [inhibitor, partial curve, poor fit]. For `CCn1c(O)c(N=NC(=O)C(O)c2ccccc2)c2ccccc21` (centres undefined), the Potency was active: 20.6 µM. In the case of `Cc1cc(C)c(S(=O)(=O)c2cccc(Br)c2C)c(=O)[nH]1`, the Potency is reported as “inactive”. In the case of `COc1cc(OC)cc(C(=O)N[C@H](C(=O)OCn2nnc3ccccc3c2=O)C(C)C)c1`, the Potency is reported as inconclusive [inhibitor, single point]. With `CCN(CC)c1ccc(C(=O)Nc2cccc(F)c2)cc1` the Potency was inconclusive [inhibitor, single point]. For `COc1ccc(CN(CC(=O)NCc2ccco2)C(=O)CCC(=O)Nc2nccs2)cc1`, the Potency was inconclusive [inhibitor, single point]. With `O=C(NCC1CCCCC1)C12CN(Cc3ccccc3)CC1C(c1cccc([N+](=O)[O-])c1)=NO2` (centres undefined) the Potency was inconclusive [inhibitor, single point]. In the case of `CN(C)CCn1c2c(c(SCC(=O)Nc3cccc4ccccc34)nc1=O)CCC2`, the Potency is reported as “inactive”. For `CSC1CCCCC1(O)CSc1nc2c(cc1C#N)CCCC2` (centres undefined), the Potency was inconclusive [inhibitor, partial curve]. With `Cc1ccccc1/[N+]([O-])=C/c1ccncc1` the Potency was inconclusive [inhibitor, single point]. With `CCOC(=O)c1ccc(N2C(=O)CC(Sc3nc(C)cc(C)n3)C2=O)cc1` (centres undefined) the Potency was inconclusive [inhibitor, single point]. With `Cc1c(Cl)cccc1NC(=O)N1CCN(C(=O)c2ccco2)CC1` the Potency was “inactive”. With `O=C1Cc2c(-c3ccccc3)cc(-c3cccc(Cl)c3)nc2-c2ccccc2N1` the Potency was inconclusive [inhibitor, single point]. In the case of `COc1cccc(CNc2ncnc3cc(Cl)ccc23)c1`, the Potency is reported as inconclusive [inhibitor, full curve, poor fit]. With `Cc1sc(NC(=O)CSC2=NCCS2)nc1-c1ccccc1` the Potency was inconclusive [inhibitor, partial curve]. In the case of `COc1ccccc1C1CC(c2ccc(F)cc2)Nc2ncnn21` (centres undefined), the Potency is reported as active: 20.6 µM. In the case of `CCC(=O)Nc1ccc(C(=O)N/N=C/c2cc(Br)c(OC)cc2OC)cc1`, the Potency is reported as inconclusive [inhibitor, single point]. For `COc1cccc(/C=N/NC(=O)CNC(=O)c2ccc3c(c2)OCCO3)c1O`, the Potency was inconclusive [inhibitor, single point]. In the case of `COc1cccc(OC)c1NC(=O)CN1CCC(NC(=O)c2cccc(F)c2)CC1`, the Potency is reported as “inactive”. For `COCCN1CN(S(=O)(=O)c2ccc(Cl)cc2)c2nc3ccccc3nc21`, the Potency was inconclusive [inhibitor, single point]. With `Cc1ccc(-n2ncc(C(=O)NCc3ccc4c(c3)OCO4)c2C2CCN(C(=O)OC(C)(C)C)CC2)cc1C` the Potency was inconclusive [inhibitor, single point]. For `Cc1ccc(NCc2cccn2-c2nnc(N3CCC(C(=O)NCc4ccccc4C)CC3)s2)cc1`, the Potency was active: 16.4 µM. For `COc1ccc(CN2CCCN(CC(=O)Nc3ccc(Br)cc3F)S2(=O)=O)cc1`, the Potency was inconclusive [inhibitor, partial curve, poor fit]. For `COc1ccc(C)cc1NC(=O)COC(=O)c1c(C)nn(-c2ccccc2)c1C`, the Potency was active: 11.6 µM. In the case of `CCOC(=O)c1c(C)[nH]c(C)c1S(=O)(=O)N(C)CC(=O)Nc1cccc(Cl)c1C`, the Potency is reported as inconclusive [inhibitor, partial curve]. With `CN(NC(=O)C1CC(=O)N(c2ccccc2)C1)C1=NS(=O)(=O)c2ccccc21` (centres undefined) the Potency was “inactive”. In the case of `Cc1c(Cl)cccc1NC(=O)c1cc(-c2cccs2)on1`, the Potency is reported as “inactive”. For `CC(C)(C)NC(=O)CN(C(=O)CN1C(=O)C(=O)c2ccccc21)C(C)(C)C`, the Potency was “inactive”. With `COc1ccc(C(=O)N2CCCCC2CCN2CCOCC2)cc1` (centres undefined) the Potency was “inactive”. With `CC1=C(c2ccc(C)c(C)c2)S(=O)(=O)N=C1N1CCN(c2cccc(C)c2)C(C)C1` (centres undefined) the Potency was active: 10.3 µM. With `Cn1c2ccccc2c(=O)c2cc(C#CC3=CCCCC3)ccc21` the Potency was active: 18.4 µM. In the case of `C[C@@H]1CN([C@H](C)CO)C(=O)CCCn2nncc2CO[C@H]1CN(C)C(=O)Nc1cccc(Oc2ccccn2)c1`, the Potency is reported as inconclusive [inhibitor, full curve, poor fit]. For `COc1cc(/C=C2\SC(=O)N(c3ccccc3Cl)C2=O)cc([N+](=O)[O-])c1O`, the Potency was inconclusive [inhibitor, single point]. In the case of `CC(C)c1cccc(C(C)C)c1NC(=O)CNCc1ccccc1F`, the Potency is reported as inconclusive [inhibitor, single point]. For `Cc1ccc(C)c(N/C(N)=N/c2nc(C)cc(C)n2)c1`, the Potency was active: 13 µM. In the case of `CCCN(CCC)Cc1c(C(=O)N/N=C/CCc2ccccc2)nnn1-c1nonc1N`, the Potency is reported as “inactive”. For `CCCC1=C(C(=O)OCC)C(c2ccccc2OCC)NC(=O)N1C` (centres undefined), the activity change, negative = growth inhibition was inconclusive: -33.8% [inhibitor]. For `O=C(Cc1c(Cl)cccc1Cl)OCc1ccccn1`, the Potency was inconclusive [inhibitor, partial curve]. With `Cc1cc(OCC(=O)NNC(=S)NCC2CCCO2)cc(C)c1Cl` (centres undefined) the Potency was inconclusive [inhibitor, single point]. With `O=C(CC1C(=O)NCCN1Cc1cccc(C(F)(F)F)c1)NC1CCCCCC1` (centres undefined) the Potency was inconclusive [inhibitor, single point]. In the case of `O=C(c1ccccc1Cl)N1CCCC(c2nc3c(nnn3Cc3ccc(F)cc3F)c(=O)[nH]2)C1` (centres undefined), the Potency is reported as inconclusive [inhibitor, single point]. For `CN(C(=O)CSc1nc2ccc(NC(=O)COc3ccc(F)cc3)cc2s1)c1ccccc1`, the Potency was active: 4.61 µM. For `CC1(c2ccccc2Cl)NC(=O)N(CC(=O)N2CCc3ccccc32)C1=O` (centres undefined), the Potency was inconclusive [inhibitor, single point]. With `CCOC(=O)c1ccc(NC(=O)C2=C(C)C(=O)OC23CCCCCC3)cc1` the Potency was inconclusive [inhibitor, single point].

From PubChem BioAssay AID686978 (National Center for Advancing Translational Sciences (NCATS), 2013)
On the % scale 0 is the no-effect control and ±100 the full control effect; potency means the concentration at half of the fitted maximal effect; tags describe the fitted curve by direction and shape.
